# Measurements from ChEMBL document CHEMBL4888484, “Replenishing the malaria drug discovery pipeline: Screening and hit evaluation of the MMV Hit Generation Library 1 (HGL1) against asexual blood stage Plasmodium falciparum ,using a nano luciferase reporter read-out” (2022).
# In all, about 150,000 compounds went through this assay and about 540 (0.36%) showed an effect of 50% or more. Some of the results follow.
# System: Plasmodium falciparum
# Assay: Primary screen in NF54 nanoGlo assay, in single point, at 2uM, 72h; a lower Z score goes with more inhibition
# Format: functional, Erythrocyte
# Settings: timepoint 72 hour
Structure (SMILES),% Inhibition [%],Z score
Cc1oc(C(C)C)cc1C(=O)N1CC(C)[S+]([O-])C(C)C1 (configuration not stated),-2,0.27
CCn1nccc1CN(C)C(=O)c1ccnn1C(F)F,-42,4.91
CS(=O)(=O)N[C@H]1CC12CCN(C(=O)c1ccccn1)CC2,10,-1.29
CCn1ccnc1CN(C)Cc1cc(C)cc(C)n1,-8,1.16
CC(C)C(=O)N1CCN(c2nc3ccccc3c3nnc(C(C)C)n23)CC1,-3,0.51
CCC(=O)N1CCC[C@@](NCCCOC)(c2nnnn2C2CCCC2)C1,-5,0.65
CCn1nc(CC(C)C)cc1C(=O)N1CCN(Cc2cccc(C)c2)C(=O)[C@@H]1C,-14,1.8
Cn1cc(CN2CCCCc3ccccc32)cn1,-36,4.21
COc1cccc(-n2c(=O)c3ccccc3n([C@@H](C)C(=O)NCc3cccc(C(F)(F)F)c3)c2=O)c1,2,-0.27
CC1CC(C)CN(C2=NC(=O)C(CC(=O)Nc3cccc(Cl)c3)N2)C1 (configuration not stated),28,-3.14
Cc1cnc(OC2CCN(Cc3cc4ccccc4[nH]c3=O)CC2)nc1,-8,0.99
CN(Cc1ccccc1)c1cnn(Cc2nnc(-c3ccco3)o2)c(=O)c1,-32,3.1
c1ccc(-c2nc(-c3cccc(-c4nc(-c5ccccc5)nc5ccccc45)c3)c3ccccc3n2)cc1,0,0.02
Cc1ccc(Cl)cc1NC(=O)N1CCC(c2nnc(C(=O)Nc3ccccc3)s2)CC1,-7,0.66
CN(C)C(=O)c1cccnc1-c1cccc2cccnc12,4,-0.49
Cc1nc(C)c(C(=O)Nc2nccn2C)s1,2,-0.32
Cc1ccc(NC(=O)c2c[nH]c3nc(C)ccc3c2=O)cc1,-14,1.92
O=C(NCc1ccc(C2CC2)nc1)c1cscn1,18,-2.32
Cc1cccc2[nH]c(COCC(=O)NCCc3csc(N)n3)nc12,-5,0.66
CCN1CCCC[C@@H]1CNS(=O)(=O)CC1CCCC1,4,-0.74
Cc1nnc(-c2ccccc2NC(=O)[C@H](C)OCC2CC2)o1,-5,0.53
Cc1cccc(-c2cncc(C(=O)NC3CCCCC3)c2)c1C,-15,1.77

Structure (SMILES),% Inhibition [%],Z score
COC1CN(Cc2cncnc2)CCC1C (configuration not stated),-22,3.18
CC(C)(C)c1noc(CNS(=O)(=O)N2CCCC2)n1,-16,2.06
CC1CCCC(NCC(C)(C)CCC#N)C1 (configuration not stated),-9,1.17
Cc1ccc(CCNC(=O)C2CCCC2)o1,-7,1.01
CNS(=O)(=O)CCN1C[C@@](C)(Cc2ccc3c(c2)OCO3)CCC1=O,-6,0.83
Cc1cccc(C)c1NC(=O)Nc1nnc2ccccn12,8,-0.88
Cn1c(C(F)(F)F)nn(CC(=O)OCc2ccccc2)c1=O,-13,1.49
COCCN1C[C@@H](Cc2cc(C(=O)N3CCCCC3)ccn2)CC1=O,-12,1.32
Cc1noc(C(F)F)c1C(=O)NC[C@H]1CS(=O)(=O)c2ccccc2O1,-3,0.45
CCCNC(=O)N(CCOC)Cc1c(C)nn(-c2ccccc2)c1Oc1ccc(OC)cc1,3,-0.43
c1cc(C2CC2)nnc1OC1CCCC1,-1,0.13
CN(CC(=O)NCCc1ccc(F)cc1)Cc1ncc[nH]1,-2,0.27
CC(C)(C)CC(C)(C)NC(=O)NCC1(CS(C)(=O)=O)CC1,-10,1.14
Cc1[nH]ccc1C(=O)N1CC[C@]2(CCN(C(=O)OC(C)(C)C)C2)C1,31,-4.04
O=S(=O)(NC1CCC2CCCCC2C1)c1ccco1 (configuration not stated),-2,0.32
O=C(Cn1ncc2c([nH]c3ccccc32)c1=O)N1CCCCCC1,-1,0.11
Cc1cc(CN2CC[C@H](CNC(=O)c3c(F)cccc3F)C2)oc1C,-1,0.2
COc1ccc2nc(C(F)(F)F)nc(N3CCNC(=O)CCN(C(=O)C(F)=C4CCCC4)CC3)c2c1,35,-0.8
COc1ccc(-c2noc(N3CCc4ccccc43)n2)cc1,-17,1.49
CCCNC(=O)CN1C(=O)CCCc2cc(S(=O)(=O)N3CCCCCC3)ccc21,-5,0.68
O=C(c1cc(-c2ccc(F)cc2)n[nH]1)N1CCC(n2nccn2)CC1,4,-0.46
COc1ccc(-n2nc(C)c3c2NC(=O)C[C@@H]3c2cccc(OC(C)C)c2)nn1,-5,0.67

Structure (SMILES),% Inhibition [%],Z score
CN(C)C1(CNc2ncc(F)cn2)CCCC1,-3,0.48
CC1CC(CS(=O)(=O)N2CCC(CN3CCCCC3=O)CC2)C1 (configuration not stated),-4,0.6
Cc1cc(C)n(CCNCc2cc3ccc(F)cc3n(CC(C)C)c2=O)n1,-7,0.94
CCc1cnc(C)nc1N1C[C@H](C(=O)O)[C@@H](C2CC2)C1,-7,1.41
CCc1cccc(/N=C(/NC(=O)c2ccccc2)N2CCN(c3cc(C)ccc3C)CC2)c1,-4,0.66
COc1cccc2c1CN(C(=O)COCc1cc(C)on1)C2,-9,1.09
CN(CCN1CCN2C(=O)C(=O)NC[C@H]2C1)Cc1ccc(F)cc1,4,-0.67
COC[C@H](NS(=O)(=O)NCc1ccccc1)c1ccnn1C,4,-0.47
Cc1ccsc1CNc1cccc(C(=O)NCCc2ccncc2)c1,1,-0.2
CCOC(=O)c1cc(NC(=O)CC(F)(F)F)[nH]n1,-11,1.02
C=CCn1c(=O)sc2cc(NC(=O)CC3CCCCC3)ccc21,-12,1.5
CCc1noc(CCNS(=O)(=O)CCOc2ccccc2F)n1,-10,0.99
CC[C@@H](C)[C@@H](CO)NC(=O)CC[C@@H]1NC(=O)N(Cc2ccc3c(c2)OCO3)C1=O,-15,1.93
CCc1noc([C@H](C)S(=O)(=O)Cc2ccn(-c3ccccc3)n2)n1,-19,2.2
O=C1CN(c2ccc(NC(=O)C3CCCCC3)cn2)CCN1,-15,1.35
Cc1ccc(NC2OC(C)C(O)C(O)C2O)cc1C (configuration not stated),-14,1.9
O=C(c1ccc2c(c1)OCO2)N1CC(CN2C(=O)COC2=O)C1,10,-1.28
Cc1nccn1C1CN(C(=O)CCCc2ccccc2)C1,10,-1.74
COc1ccc([C@@H](O)C(=O)N2CCc3[nH]c(-c4ccccc4)nc3C2)cc1,-14,1.29
O=C(NCC1CCCC1O)Nc1nccs1 (configuration not stated),-4,0.52
N#Cc1c[nH]c(C(=O)N[C@H]2COCC[C@@H]2O)c1,-1,0.12
O=C(C1CCN(c2cncnc2N2CCCCC2)CC1)N1CCN(c2ccccn2)CC1,10,-1.86

Structure (SMILES),% Inhibition [%],Z score
Cc1cc(NS(=O)(=O)N2CCC(C)CC2)c[nH]c1=O,5,-0.69
O=C(NCc1ccccc1)C1CN(C(=O)c2cccc(Cl)c2)CC1c1cccc(C(F)(F)F)c1 (configuration not stated),-7,1.07
CCc1noc(C)c1C(=O)NCCOc1cccc2c1OC(C)(C)C2,0,0.03
CCn1cc(CN2CCC(n3nccc3NC(=O)C3CCCC3)CC2)c(C)n1,-4,0.65
CN1C(=O)[C@H](CC(=O)NCc2cccnc2-n2ccnc2)N(C)C1=O,-6,1.11
COCCCNC(=O)c1cc(NC(=O)C(C)C)cc2nc(C)n(Cc3ccccc3)c12,-16,2.77
C=CCN(Cc1ccccn1)Cc1cn(CC=C)nc1C,2,-0.34
Cc1cc(Cn2ccc(-c3cccc(-c4cnn5cccnc45)c3)n2)no1,-5,0.61
O=C(c1cnccn1)N1CC[C@@]2(CCCN(CCC3CCCCC3)C2)C1,-7,0.71
Cc1cnc(-c2ccncc2)n1[C@H]1CCN(C(=O)C2CCCCC2)C1,0,0.06
CCCN1C[C@@H](Nc2ncc(F)cn2)CC1=O,-8,1.6
Cc1nccn1CCCCNC(=O)N1CC(C)(C)OC(C)(C)C1,-12,1.26
COc1ccc(NC(=O)Cn2cnc3nc(N4CCCCC4)ncc3c2=O)c(OC)c1,36,-4.05
O=C(COCC(F)(F)C(F)F)NCc1cnn(-c2cccc(F)c2)c1,-3,0.49
COCc1ccc(S(=O)(=O)Cc2nc(C3CC3)n[nH]2)cc1,-10,0.85
Cc1cncnc1C1CCN(C(=O)CCNS(C)(=O)=O)CC1,-5,0.73
O=C(N[C@H]1CO[C@H]2[C@@H]1OC[C@@H]2Nc1nccc(-c2ccc(-c3ccccc3)cc2)n1)C1CCCCC1,30,-3.42
Cc1csc(CNC(=O)N(C)Cc2cc(C)on2)n1,-2,0.33
Cc1cc(CNc2cncc(-n3cncn3)n2)ccc1Cl,-19,3.07
CCOC(=O)c1sc(=S)n(C)c1NC(=O)c1ccccc1,-4,0.53
